Measured values from the supplement of paper PMC10338343.
± gives the standard deviation. This is a selection; strong and weak results do not stand in their true shares.

Assays:
[1] = tested on: MIWI (PIWIL1) piRISC loaded with L1MC piRNA (30 nt); experiment: pre-steady-state target cleavage rate (min^-1); MIWI and MILI are mouse PIWI proteins and EfPiwi is from a freshwater sponge; tags in brackets are library labels; higher = faster piRNA-guided slicing of the target; conditions: guide: L1MC piRNA 5'p-UAACUAAAUACUAUGCAAGCUGUAGGUCCU
How it was run: (§1)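 For Cleave-'n-Seq, a transcribed, DNA-blocked target RNA library […] met 1 nM active affinity-purified piRISC with one synthetic guide at 33 °C for 0–8 or 0–960 min in HEPES–potassium acetate buffer, with or without 500 nM GTSF1 partner protein. Uncleaved targets were sequenced and normalised to depth and weakly complementary targets, with three trials pooled and k3 capped at 0.0001 min^-1. A burst-and-steady-state fit supplied the pre-steady-state cleavage rate.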

[2] = tested on: MIWI (PIWIL1) piRISC loaded with piRNA #1 (30 nt); experiment: as above; conditions: guide: piRNA #1 5'p-UGAGGUAGUAGGUUGUAUAGUAUCCAGAGG; auxiliary factor: 500 nM mouse GTSF1
How it was run: as §1

[3] = auxiliary factor: 500 nM mouse GTSF1
[4] = auxiliary factor: none (no GTSF1)
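Further: 1 nM active piRISC with 0.1 nM target library at 33 °C single turnover.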

| Sequence | pre-steady-state target cleavage rate [1, 3] | pre-steady-state target cleavage rate [1, 4] | pre-steady-state target cleavage rate [2] |
| --- | --- | --- | --- |
| UCCUGGAUUAGCUUGCAUAGUAUUUAGUUA | 0.925 ± 0.034 | 0.0734 ± 0.015 |  |
| UCCUGGAACAGCUUGGUUAGUAUUUAGUAA | 0.453 ± 0.057 | 0.00435 ± 0.0028 |  |
| UCCACCUACAGCUACCAUAGUAUUUAGUUA | 0.404 ± 0.046 | 0.00206 ± 0.002 |  |
| UCCUCCUACAGCUUGCAUUCUAUUUAGUAA | 0.108 ± 0.025 | 0.00223 ± 0.0022 |  |
| UCCUGGAACAUCUUGCAUAGUAUUUAGUUA | 1.07 ± 0.046 | 0.0385 ± 0.0067 |  |
| UCCUGGAACAGCUUGCAUAGUUUUUUGUUA | 0.197 ± 0.025 | 0.0238 ± 0.0057 |  |
| UCGACCUACACCUUGCAUAGUAUUUACAAA | 0.353 ± 0.045 | 0.00595 ± 0.0018 |  |
| UCCUCCUACAGCUUGCAUAGUAUUAUGUUA | 0.347 ± 0.03 | 0.0125 ± 0.0043 |  |
| UCCACCUACAGCUUGCAAAGUUUUUAGUUA | 0.286 ± 0.019 | 0.0128 ± 0.0027 |  |
| UCCUGGUACAGCUUGCAUAGUAUUUAGUUG [g2:g24:cont:t1G] | 0.491 ± 0.024 | 0.0391 ± 0.0078 |  |
| UCCUGGAUCAGCUUGGAUAGUAUUUUGUUA | 0.414 ± 0.043 | 0.0193 ± 0.0042 |  |
| AGGAGCUACAGCUUGCAUAGUAUUUAGAAA | 0.432 ± 0.05 | 0.0169 ± 0.0043 |  |
| UCCUGGAUCAGCUAGCAUAGUAUUUAGUUA | 0.962 ± 0.075 | 0.0128 ± 0.0027 |  |
| UCCUGGAUCAGCUUGGAUACUAUUUAGUUA | 0.212 ± 0.03 | 0.033 ± 0.0082 |  |
| UCCUCCUACAGCUGGCAUAGUAUUUAGUUA | 1.06 ± 0.044 | 0.0176 ± 0.0034 |  |
| UCCACCUACAGCUUGCAUAGUAUUAUGUUA | 0.302 ± 0.034 | 0.0133 ± 0.0026 |  |
| UCGACCUACAGCUUGCAUAGUAGUUUAGUUA | 0.574 ± 0.031 | 0.0134 ± 0.0039 |  |
| UGGACCUACAGACUUGCAUAGUAUUUAGUUA | 1.13 ± 0.1 | 0.0446 ± 0.0075 |  |
| UCCUGCUACAGCUUGCAUUGUAUAUAGUUA | 0.41 ± 0.034 | 0.0118 ± 0.0039 |  |
| UCCUCCUACAGCUUGCAUUGUAUUUUGUUA | 0.558 ± 0.027 | 0.0146 ± 0.004 |  |
| UGGACCUACAGCUUGCAUAGUUUUUAGAAA | 0.165 ± 0.028 | 0.00934 ± 0.0035 |  |
| UCCACCUACAGCUUGGAUAGUAUAUAGUUA | 0.547 ± 0.043 | 0.0205 ± 0.0039 |  |

| Sequence | pre-steady-state target cleavage rate [1, 3] | pre-steady-state target cleavage rate [1, 4] | pre-steady-state target cleavage rate [2] |
| --- | --- | --- | --- |
| UCGACCUACAGCUUGCAUAGUAUUUAGUUC [g2:g28:cont:t1C] | 1.22 ± 0.045 | 0.0714 ± 0.013 |  |
| UCCUGGUACAGCUUGCAUAGUAUUUACGUUA | 0.474 ± 0.066 | 0.0252 ± 0.0062 |  |
| UCCUGCUACAGGAUGCAUAGUAUUUAGUAA | 1.05 ± 0.18 | 0.00358 ± 0.0017 |  |
| UCCUGGAUGAGCUUGCAUAGUAUUGUAGUUA | 0.108 ± 0.019 | 0.0197 ± 0.0052 |  |
| UCCUGCAUGAGCUUGCAUAGUAUUUAGAAA | 0.315 ± 0.048 | 0.00431 ± 0.0027 |  |
| UCCUGGUACAGCUAGCAUAGUAUUUAGUAA | 0.422 ± 0.05 | 0.00728 ± 0.0033 |  |
| UCCUGGAUCAGCUUGGAUAGUAUUAAGUUA | 0.258 ± 0.033 | 0.0129 ± 0.0046 |  |
| UCCUGCUACUGCUUGCAAAGUAUUUAGUUA | 0.371 ± 0.042 | 0.0277 ± 0.0043 |  |
| UCCUGGAUGUGCUUGCAUAGUAAAUAGUUA | 0.00946 ± 0.0041 | 0.00369 ± 0.0032 |  |
| UCGACCUAGUGCUUGCAUAGUAUUUAGAAA | 0.139 ± 0.019 | 0.00515 ± 0.0018 |  |
| UGGACCUACAGCUUGCAUACUAAUUAGUUA | 0.154 ± 0.01 | 0.00958 ± 0.0024 |  |
| UCCUGGUACAGCUUGCACAGUAUUUAGUUA | 0.752 ± 0.024 | 0.054 ± 0.0089 |  |
| UCCUGGAUGAGCUUGCAUAGUACUUUAGUUA | 0.11 ± 0.014 | 0.00854 ± 0.0028 |  |
| UCCUCCUAGAGCAUGCAUAGUAUUUAGUUA | 0.586 ± 0.055 | 0.0146 ± 0.0025 |  |
| UCCUGGAACAGCUUGCUUAGUAUUUAGAAA | 0.434 ± 0.073 | 0.00637 ± 0.0032 |  |
| UCCUGGAUCAGCUUGCAAACUAUUUAGUUA | 0.0815 ± 0.0098 | 0.00677 ± 0.003 |  |
| GGUCUGGAUUGAAUACAACCUACUACCUCA |  |  | 0.555 ± 0.065 |
| GGAGAGGAUACUAUACAACCUAUUACCUCA |  |  | 1.06 ± 0.082 |
| GGAGUGCGAUACUAUACAACCUACUACCUCA |  |  | 1.7 ± 0.096 |
| GGAGACCUAUCUUUACAUCCUACUACCUCA |  |  | 0.0871 ± 0.016 |
| GCUGUGGAUACUAUACAACGUACUACCUCA |  |  | 1.05 ± 0.065 |
| GGACUGGAUACUAUACAACCUACUACCCA |  |  | 0.107 ± 0.025 |

| Sequence | pre-steady-state target cleavage rate [1, 3] | pre-steady-state target cleavage rate [1, 4] | pre-steady-state target cleavage rate [2] |
| --- | --- | --- | --- |
| GGAGUGGAUACUAUACAUCCUAGUACCUCA |  |  | 0.348 ± 0.049 |
| GCUCUGGAAACUAUACUACCUACUACCUCA |  |  | 1.68 ± 0.15 |
| GGAGUGGAUAGUAUUCAACCUACUACCUCA |  |  | 0.584 ± 0.064 |
| GGAGACCUAUGUAUACAACCUCCUACCUCA |  |  | 0.0733 ± 0.0095 |
| GCUCUGGAUACUAUACUAGCUACUACCUCA |  |  | 0.797 ± 0.06 |
| GGAGAGGAUACUAUACUACCUACUACCUGA |  |  | 0.412 ± 0.044 |
| GCUGUGGAUACUAUACAACCUACUAGCUCA |  |  | 0.0678 ± 0.022 |
| GGAGACCAUACUUUACAACGUACUACCUCA |  |  | 0.375 ± 0.047 |
| GGAGUGGAUACUAUACAAGCUACUACCACA |  |  | 0.465 ± 0.027 |
| GGAGACGAAACUAUACAUCCUACUACCUCA |  |  | 0.978 ± 0.07 |
| GCUCAGGAUAGUAUACAACCUACUACCUCA |  |  | 0.82 ± 0.043 |
| CCUCUGGAUACUAUACUACCAACUACCUCA |  |  | 0.0297 ± 0.007 |
| GGAGACCAUACUAUACAACCUACUACCUCA [g2:g23:cont:t1A] |  |  | 1.5 ± 0.12 |
| GGAGAGGAUACUAUACAACCUACUAACUCA |  |  | 0.363 ± 0.044 |
| GGAGACCUUACUAUACAACGUACUACCUCA |  |  | 0.606 ± 0.037 |
| CCUCUGGAUACUAUACAACGCUACUACCUCA |  |  | 0.00785 ± 0.0037 |
| GGAGACCAUACUAUACAUCCUACUACCACA |  |  | 1.37 ± 0.085 |
| CCUCAGGAUACUAUACAACCUACUUCCUCA |  |  | 0.797 ± 0.052 |
| GGUCUGGAUACUAAACUACCUACUACCUCA |  |  | 1.24 ± 0.11 |
| GGAGACCUAUGAUAACAACGAUCUACCUCA |  |  | < 0.0001 |
| GGAGACCAAACUAUACAACGUACUACCUCA |  |  | 0.253 ± 0.034 |
